The supplement of paper PMC11417369
± gives the standard deviation of the averaged measurements. The list shows a part of the results.

test system: PfAP2-LT AP2 domain (GST-tagged); assay: gcPBM binding intensity (ln(normalized median fluorescence intensity)); higher = stronger DNA binding
Method in brief: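 Alexa488 anti-GST antibody, scanned at 488 nm, detected GST-tagged P. falciparum DNA-binding domains that had been expressed in E. coli and incubated for 1 h on an Agilent 4 × 180k array. The array carried primer-extended double-stranded 36-bp intergenic genomic probes and negative controls. Binding intensity is the highest Masliner-normalised natural-log median intensity across replicate spots of either orientation of each probe.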

Sequence | gcPBM binding intensity (ln)
GATGAGGACAGACACACACACATAAGTTGATACATA [CACACA_site7580] | 9.62 ± 0.44
GTTTTTACTTTTATCTGTACATAATACTACCAATAT [XGTACX_site5414] | 8.86 ± 0.46
TATATATTAAGATGCACACACAAGAAGTAATTATAA [CACACA_site5726] | 9.25 ± 0.37
ATTTTTTCTTATAAAAAAGAAAAAGAAAAAGAAAAA [CACACA_negctrl_site1216] | 8.02 ± 0.42
ACAGCTCTAGGACATGCATGTTATATAGAAAAAGAG [TGCATGCA_site703] | 8.94 ± 0.5
TTCTTTATATAAACAAGTACATATAAAATACATATA [XGTACX_site8036] | 8.43 ± 0.38
AAGTTAATGTTTTGCGCACACTTCTTTTTAATATAA [CACACA_site3938] | 9.29 ± 0.35
TTCATTAAAGTTATTACACACAGTTCTTCAACCAAA [CACACA_site7613] | 8.77 ± 0.42
AAATACATATTTAGAAGTACATTTATACATTTAATA [XGTACX_site8871] | 8.64 ± 0.39
TATAATTTTTTTGAATTATATATATATATATATAAT [XGTACX_negctrl_site26] | 8.6 ± 0.27
ATAATATTATGAACCTGTACATAATTTTTCTTTTCT [XGTACX_site3377] | 8.62 ± 0.51
TGATATAAAATTAAAGTGCAAAAAAAAAATAAAAAA | 8.8 ± 0.54
AGTATATTTCTAACTTGTACGAAATTAATAATTTAT [XGTACX_site6635] | 8.48 ± 0.45
TATATATAATATGAATGTACACAAAAAGGTAATACA [XGTACX_site6202] | 9.11 ± 0.62
AAAAAAAAGAAATAGACACACATATATTTTTAAACA [CACACA_site3954] | 8.73 ± 0.61
TAAGGGAGAGATTTGTATCATAAGCAACTTTCAAAA [CACACA_negctrl_site1436] | 8.48 ± 0.35
TTATAATTAAATTTCACACAGTTCATAACATAATTA [CACACA_site5501] | 8.47 ± 0.42
TTTATATGTTTTAAGTGTACACATATAATGTATTTT [XGTACX_site3069] | 8.78 ± 0.46
ACTTTCAACATGAAGTTGCACTTTTTTTTTTTTCTT | 8.79 ± 0.49
AGCCCTTTTTTTTTTTAGAATATTGCATAATTATAT [XGTACX_negctrl_site546] | 8.79 ± 0.36
TATATAAATATATCCACACACATACCTATATTAATA [CACACA_site6184] | 9.24 ± 0.25
GTATTGTATGGATGGGGTACTATATATATATATTTT [XGTACX_site1694] | 9.37 ± 0.14
AGACAATATTAATAAGGTACACATATATATTAAAAA [XGTACX_site6709] | 8.87 ± 0.57

Sequence | gcPBM binding intensity (ln)
TAATTAAATAAAAAAAAATATATATATATATATATA [XGTACX_negctrl_site616] | 9.46 ± 0.25
TTTTTTAAAAATAACTGTACAGAGGCTGTTAGGATA [XGTACX_site2521] | 8.57 ± 0.43
TCCATATGCATGTATTGTACTGTAATATATTAAAAA [XGTACX_site472] | 8.56 ± 0.24
AAAAAAAAAAAAGAAACACACACATATATATATATA [CACACA_site8525] | 9.94 ± 0.3
AGCAGTCGACAGGACAGTACACAGTAGCCAGGAAAT [XGTACX_site4929] | 9.25 ± 0.49
TAAATATATAAATACACACACACCAAAGCAATAGAT [CACACA_site5605] | 9.985 ± 0.078
TTTGATAATAAGATATAATACTTAAATATATATATA [GTGCAC_negctrl_site339] | 8.4 ± 0.38
TATTTTACGCGGTTTATAATGACATGTTCTATATTT [CACACA_negctrl_site1184] | 9.01 ± 0.45
AAATATATATTCAAAAGTACACAATTTGTTAATAAT [XGTACX_site8917] | 8.77 ± 0.39
CACACTTGCTCCTGTTGTACATAACCATAAGCAACA [XGTACX_site2102] | 8.79 ± 0.4
TGAATATAACAAATATGTACTTAAAATTGTTATATT [XGTACX_site5679] | 8.54 ± 0.46
ATTATTAAAAATATGGGTACATATTATTGTTATATA [XGTACX_site1958] | 8.56 ± 0.43
AAAAAAAAAAAAAAATGTACATGACATGACATGACA [XGTACX_site4020] | 8.68 ± 0.45
TTATATTTTACAAATGCACACATAATTTTTTTTTTT [CACACA_site8890] | 8.84 ± 0.54
AAACTTTACATTACTTGTACATATATTCTATATAAT [XGTACX_site8640] | 9.05 ± 0.41
TAAAGAAATAAATACATACACACATATATATATATA [CACACA_site3363] | 9.64 ± 0.15
TTATAAATAATGAGAAACATTAAATTTAATCATAAA [CACACA_negctrl_site523] | 8.36 ± 0.47
TTTAGTGTTATAAAAAGTACATAATAATTCCTTTTC [XGTACX_site3208] | 8.37 ± 0.47
AAAAATTCAATAGGACGTACTAAAACATTCATTAAT [XGTACX_site1712] | 8.84 ± 0.36
TACTATATATATATATATATATATATATATATTTAT [GTGCAC_negctrl_site593] | 9.15 ± 0.15
AAAATGTAATATTGGGTGCACAATAAGTTTGATGTC | 9.14 ± 0.47
TAGTATTAAATATATACACACATATATACCTATAGA [CACACA_site5219] | 8.95 ± 0.45
